This passage reports IC50 results from publication PMC8113725, “Structure–activity relationship of ipglycermide binding to phosphoglycerate mutases” (The Journal of Biological Chemistry, 2021).

The IC50 is the point on the concentration scale where inhibition reaches its midpoint.

Molecules are shown by their SMILES.

One test concerns the target C. elegans iPGM (Caenorhabditis elegans, UniProt G5EFZ1). The test is described as follows: PGM enzyme assay (enolase–pyruvate kinase coupled, Kinase-Glo Plus end point) and IC50 determination. As to conditions: Ce iPGM Ave IC50 (M), 5 nM enzyme. The format is biochemical. For orientation: Kinase-Glo measures the ATP left after a reaction by luminescence.
The target of the next test is B. malayi iPGM (Brugia malayi, UniProt Q4VWF8). The test is described as follows: biochemical. The conditions noted are these: Bm iPGM Ave IC50 (M), 5 nM enzyme.
The next test has as its target O. volvulus iPGM (Onchocerca volvulus, UniProt I6LDA6). The test is described as follows: biochemical. As to conditions: Ov iPGM Ave IC50 (M), 5 nM enzyme.
Setting [1] is: Supplementary Table 4b, Ce-2d analogs.
[2] abbreviates: Supplementary Table 4a, Ce-2 analogs, average of N=2-3 independent experiments.

UniProt I6LDA6, sequence (I6LDA6 whole entry): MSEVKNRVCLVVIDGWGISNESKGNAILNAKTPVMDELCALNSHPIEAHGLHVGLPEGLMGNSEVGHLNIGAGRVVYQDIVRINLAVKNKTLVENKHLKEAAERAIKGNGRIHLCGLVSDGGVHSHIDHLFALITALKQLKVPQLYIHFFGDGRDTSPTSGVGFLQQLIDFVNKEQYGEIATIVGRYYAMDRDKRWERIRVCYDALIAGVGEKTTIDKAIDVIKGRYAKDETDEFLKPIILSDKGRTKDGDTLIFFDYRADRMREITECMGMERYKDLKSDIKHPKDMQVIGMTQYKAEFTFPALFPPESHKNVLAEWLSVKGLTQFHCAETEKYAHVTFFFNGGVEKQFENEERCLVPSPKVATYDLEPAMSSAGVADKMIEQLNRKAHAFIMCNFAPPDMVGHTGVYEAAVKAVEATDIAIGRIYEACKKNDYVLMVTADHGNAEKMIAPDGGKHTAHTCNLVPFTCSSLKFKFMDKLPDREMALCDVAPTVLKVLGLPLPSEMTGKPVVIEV
UniProt Q4VWF8, sequence (Q4VWF8 whole entry): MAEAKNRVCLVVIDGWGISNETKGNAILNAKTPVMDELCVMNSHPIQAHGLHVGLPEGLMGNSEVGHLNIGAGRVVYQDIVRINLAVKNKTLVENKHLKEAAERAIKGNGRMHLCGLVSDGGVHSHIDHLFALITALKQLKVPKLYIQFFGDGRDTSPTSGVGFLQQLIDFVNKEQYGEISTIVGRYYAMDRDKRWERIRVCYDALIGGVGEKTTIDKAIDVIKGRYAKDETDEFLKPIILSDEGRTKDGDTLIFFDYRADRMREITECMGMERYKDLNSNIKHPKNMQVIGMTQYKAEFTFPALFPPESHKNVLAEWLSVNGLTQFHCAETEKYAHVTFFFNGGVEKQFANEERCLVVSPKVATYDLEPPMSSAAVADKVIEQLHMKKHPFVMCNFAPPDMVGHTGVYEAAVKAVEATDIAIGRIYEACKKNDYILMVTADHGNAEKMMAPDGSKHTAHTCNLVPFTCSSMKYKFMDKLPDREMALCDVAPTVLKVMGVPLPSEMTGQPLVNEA

Turning to `COc1ccc(C[C@H]2NC(=O)CSC[C@@H](C(=O)N[C@@H](Cc3ccc(O)cc3)C(=O)N[C@@H](CC(C)C)C(=O)N[C@@H](Cc3ccc(O)cc3)C(N)=O)NC(=O)[C@H](Cc3ccc(O)cc3)NC(=O)[C@H](CC(=O)O)NC(=O)CNC(=O)[C@@H]3CCCN3C(=O)[C@H](Cc3ccc(O)cc3)NC(=O)[C@H](CC(=O)O)NC2=O)cc1` [Ce-2d Y1D(4OMe)F], the concentration for half-maximal inhibition (IC50) at C. elegans iPGM (setting [1]) came out at 1.35e-08 M; at B. malayi iPGM (setting [1]) it was 3.95e-08 M; against O. volvulus iPGM (setting [1]) it was 1.53e-07 M.
As to `CC(C)C[C@H](NC(=O)[C@H](Cc1ccc(O)cc1)NC(=O)[C@@H]1CSCC(=O)N[C@H](Cc2ccc(O)cc2)C(=O)N[C@@H](CC(=O)O)C(=O)N[C@@H](Cc2ccc(O)cc2)C(=O)N2CCC[C@H]2C(=O)NCC(=O)N[C@@H](CC(=O)O)C(=O)N[C@@H](Cc2ccc(O)cc2)C(=O)N1)C(=O)N[C@@H](Cc1ccc(O)cc1)C(=O)NCCCC(=O)N[C@@H](CS)C(N)=O` [Ce-2 [12-13]GABA], the half-maximal inhibitory concentration (IC50) is 1.49e-09 M at C. elegans iPGM (setting [2]), 3.12e-09 M at B. malayi iPGM (setting [2]) and 4.02e-09 M on O. volvulus iPGM (setting [2]).
`CC(C)C[C@H](NC(=O)[C@H](Cc1ccc(O)cc1)NC(=O)[C@@H]1CSCC(=O)N[C@H](Cc2ccc(O)cc2)C(=O)N[C@@H](CC(=O)O)C(=O)N[C@@H](Cc2ccc(O)cc2)C(=O)N2CCC[C@H]2C(=O)NCC(=O)N[C@@H](CC(=O)O)C(=O)N[C@@H](Cc2ccc(O)cc2)C(=O)N1)C(=O)N[C@@H](Cc1ccc(F)cc1)C(N)=O` [Ce-2d Y11(4F)F]: the values for the IC50 on C. elegans iPGM (setting [1]), at B. malayi iPGM (setting [1]) and on O. volvulus iPGM (setting [1]) were 3.69e-09 M, 4.74e-08 M and 1.4e-07 M, respectively.
With `CC(C)C[C@H](NC(=O)[C@H](Cc1ccc(O)cc1)NC(=O)[C@@H]1CSCC(=O)N[C@H](Cc2ccc(O)cc2)C(=O)N[C@@H](CC(=O)O)C(=O)N[C@@H](Cc2ccc(F)cc2)C(=O)N2CCC[C@H]2C(=O)NCC(=O)N[C@@H](CC(=O)O)C(=O)N[C@@H](Cc2ccccc2)C(=O)N1)C(=O)N[C@@H](Cc1ccc(O)cc1)C(=O)NCC(=O)N[C@H](C(=O)N[C@@H](CS)C(N)=O)[C@@H](C)O`, the IC50 stood at 9.03e-10 M on C. elegans iPGM (setting [2]), 2.12e-09 M at B. malayi iPGM (setting [2]) and 1.87e-09 M against O. volvulus iPGM (setting [2]).
Take `CC(C)C[C@H](NC(=O)[C@H](Cc1ccc(O)cc1)NC(=O)[C@@H]1CSCC(=O)N[C@H](Cc2ccc(O)cc2)C(=O)N[C@@H](CC(=O)O)C(=O)N[C@@H](Cc2ccc(O)cc2)C(=O)N2CCC[C@H]2C(=O)N[C@@H](CC(C)C)C(=O)N[C@@H](CC(=O)O)C(=O)N[C@@H](Cc2ccc(O)cc2)C(=O)N1)C(=O)N[C@@H](Cc1ccc(O)cc1)C(N)=O` [Ce-2d G5L]: the half-maximal inhibitory concentration (IC50) at C. elegans iPGM (setting [1]) was determined as 2.23e-08 M; against B. malayi iPGM (setting [1]), 1.47e-06 M; at O. volvulus iPGM (setting [1]) it was 3.89e-06 M.
For `CC[C@H](C)[C@@H]1NC(=O)[C@H](Cc2ccc(O)cc2)NC(=O)[C@H](CC(=O)O)NC(=O)[C@@H](Cc2ccc(O)cc2)NC(=O)CSC[C@@H](C(=O)N[C@@H](Cc2ccc(O)cc2)C(=O)N[C@@H](CC(C)C)C(=O)N[C@@H](Cc2ccc(O)cc2)C(N)=O)NC(=O)[C@H](Cc2ccc(O)cc2)NC(=O)[C@H](CC(=O)O)NC(=O)CNC1=O` [Ce-2d P4I] the same measures were 6.05e-09 M, 1.19e-07 M and 5.21e-07 M.
For `CC(C)C[C@H](NC(=O)[C@H](Cc1ccc(O)cc1)NC(=O)[C@@H]1CSCC(=O)N[C@H](Cc2ccc(O)cc2)C(=O)N[C@@H](CC(=O)O)C(=O)N[C@@H](Cc2ccc(O)cc2)C(=O)N2CCC[C@H]2C(=O)NCC(=O)N[C@@H](CC(=O)O)C(=O)N[C@@H](Cc2ccc(O)cc2)C(=O)N1)C(=O)N[C@@H](Cc1ccc(O)cc1)C(=O)O` [Ce-2d Y11COOH] the same measures were 4.64e-08 M, 5.12e-07 M and 6.98e-07 M.
On the same counts, the results for `CC(C)C[C@H](NC(=O)[C@H](Cc1ccc(O)cc1)NC(=O)[C@@H]1CSCC(=O)N[C@H](Cc2ccc(O)cc2)C(=O)N[C@@H](CC(=O)O)C(=O)N[C@@H](Cc2ccc(O)cc2)C(=O)N[C@@H](C)C(=O)NCC(=O)N[C@@H](CC(=O)O)C(=O)N[C@@H](Cc2ccc(O)cc2)C(=O)N1)C(=O)N[C@@H](Cc1ccc(O)cc1)C(N)=O` [Ce-2d P4A] are 6.76e-09 M, 3.66e-08 M and 1.85e-07 M.
